The results in this text go back to paper PMC4336329 (PLoS ONE, 2015).

Hit rate of the full screen: of about 310,000 compounds, about 14,000 (4.5%) showed an effect of 50% or more. Effects have a minus sign here. The list shows a part of the results.
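Further: peak tail current of the secondary pulse compared with the same well before compound.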

For this assay, the target named is human ether-à-go-go-related gene (hERG) potassium channel (human, UniProt Q12809). Nature of the assay: primary screen, population patch clamp on CHO cells stably expressing hERG.
Sequence of human ether-à-go-go-related gene (hERG) potassium channel (Q12809 whole entry, looked up): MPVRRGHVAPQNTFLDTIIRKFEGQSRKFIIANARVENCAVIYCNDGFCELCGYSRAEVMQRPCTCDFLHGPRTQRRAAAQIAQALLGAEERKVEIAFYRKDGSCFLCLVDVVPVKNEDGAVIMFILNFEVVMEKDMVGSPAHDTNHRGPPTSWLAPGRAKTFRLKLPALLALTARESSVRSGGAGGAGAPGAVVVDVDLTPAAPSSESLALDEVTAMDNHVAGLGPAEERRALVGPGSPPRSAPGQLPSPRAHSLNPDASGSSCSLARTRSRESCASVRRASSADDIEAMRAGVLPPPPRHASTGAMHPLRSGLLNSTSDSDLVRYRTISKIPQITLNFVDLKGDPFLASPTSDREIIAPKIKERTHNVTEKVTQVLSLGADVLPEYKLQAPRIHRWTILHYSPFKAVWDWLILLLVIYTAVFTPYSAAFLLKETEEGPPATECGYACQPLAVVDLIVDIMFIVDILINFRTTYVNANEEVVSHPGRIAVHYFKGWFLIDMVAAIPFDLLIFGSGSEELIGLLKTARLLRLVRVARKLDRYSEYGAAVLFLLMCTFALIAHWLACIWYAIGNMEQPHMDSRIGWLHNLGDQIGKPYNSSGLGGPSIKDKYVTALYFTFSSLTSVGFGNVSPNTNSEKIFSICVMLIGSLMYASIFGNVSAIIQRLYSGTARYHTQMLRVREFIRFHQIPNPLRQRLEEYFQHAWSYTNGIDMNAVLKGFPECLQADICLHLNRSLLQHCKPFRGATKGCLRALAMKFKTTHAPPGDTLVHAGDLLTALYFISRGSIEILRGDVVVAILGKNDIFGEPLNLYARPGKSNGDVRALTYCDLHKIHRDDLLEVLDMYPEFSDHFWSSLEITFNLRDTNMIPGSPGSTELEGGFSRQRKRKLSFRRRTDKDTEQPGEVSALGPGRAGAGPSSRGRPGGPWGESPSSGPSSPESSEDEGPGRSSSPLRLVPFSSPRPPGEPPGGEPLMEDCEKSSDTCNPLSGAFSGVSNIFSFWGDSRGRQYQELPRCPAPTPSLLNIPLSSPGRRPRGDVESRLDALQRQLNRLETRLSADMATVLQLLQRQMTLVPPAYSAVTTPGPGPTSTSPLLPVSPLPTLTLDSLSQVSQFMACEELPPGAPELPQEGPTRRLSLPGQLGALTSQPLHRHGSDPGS
Consider `CCN1CCN(C(=O)CCc2nnc(CCCCc3ccccc3)o2)[C@@H](C)C1=O`, for which the “hERG current change (%, negative = inhibition) at 10uM” value was 16.5%.
For the compound `CCCN1C2CCCC1CC(NC(=O)NC1CCCCC1)C2` (centres unmarked), the “hERG current change (%, negative = inhibition) at 10uM” value was -12.4%.
To `CCN(Cc1ccncc1)C(=O)c1ccccc1NS(=O)(=O)c1ccc(Br)cc1` belongs -3.86%; to `COc1ccccc1C1CCN(Cc2ccc(Cl)c(Cl)c2)CC1`, 12.3%.
For the compound `O=C(NCc1ccccc1F)C12CC3CC(CC(C3)C1)C2`, the “hERG current change (%, negative = inhibition) at 10uM” value came out at 1.48%.
Regarding `Cc1ccc(OC(C)C(=O)Nc2ccccc2C(=O)N2CCOCC2)cc1` (centres unmarked), the “hERG current change (%, negative = inhibition) at 10uM” value stood at 5.55%.
Regarding `CC(C)C1C(C#N)=C(N)Oc2n[nH]c(-c3ccc4ccccc4c3)c21` (centres unmarked), the “hERG current change (%, negative = inhibition) at 10uM” value was determined as 2.61%.
Next, `c1ccc(-c2nnc(OCC3CCCO3)c3ccccc23)cc1` (centres unmarked): -10.8%; `Cc1ccc(NC(=O)N2CCCC2)cc1Cl`: 5.43%.
Next, `Cc1ccc2nc(N(CCN(C)C)C(=O)/C=C/c3cccs3)sc2c1.Cl`: -40.3%; `NC(=O)Cn1cc(C(=O)c2ccccc2F)c2ccccc21`: 25.1%.
Next, `O=C(COC(=O)c1c(Cl)cccc1Cl)NCC1CCCO1` (centres unmarked): 0.579%.
With `O=C(NCC(=O)N1CCN(Cc2ccccc2)CC1)c1ccc(Cl)cc1`, the “hERG current change (%, negative = inhibition) at 10uM” value was -27.9%.
Regarding `CCCCOc1ccccc1C(=O)N(Cc1ccc(C)o1)C1CCS(=O)(=O)C1` (centres unmarked), the “hERG current change (%, negative = inhibition) at 10uM” value is listed as -33.4%.
Regarding `CCn1c(CSCc2ccc(C)cc2)nnc1SCC(=O)NCc1ccccc1`, the “hERG current change (%, negative = inhibition) at 10uM” value is reported as -42.1%.
As for `N#CCSc1nnc2c(Cl)cc(Cl)cn12`, the “hERG current change (%, negative = inhibition) at 10uM” value is reported as 15.5%.
For `O=C(C[n+]1ccc(-c2nnc3n2CCC3)cc1)c1ccc(Cl)cc1.[Br-]`, the “hERG current change (%, negative = inhibition) at 10uM” value is listed as 1%.
For the compound `CSCCC(NC(=O)c1ccc(Cl)cc1Cl)C(=O)N1CC(C)OC(C)C1` (centres unmarked), the “hERG current change (%, negative = inhibition) at 10uM” value is reported as -23.7%.
To `Cc1ccc(Cn2ccc(C3CC3)n2)cc1` belongs 18.2%; to `COc1ccc(-n2cccc2/C=C2\C(=N)N3N=C(c4ccco4)SC3=NC2=O)cc1`, 16.5%; to `COc1ccc(-c2csc(-c3ccccc3)n2)c(OC)c1`, 29.1%.
Next, `CC(C)(C)OC(=O)N1CCC2(CC1)Oc1ccc(F)cc1C(=O)C21CC(c2ccccc2)=NO1` (centres unmarked): 11.1%; `CCn1ncc(Br)c1C(=O)Nc1ncc(C)s1`: 7.17%.
To `CCCNC(=O)C/C(C)=N/NC(=O)COc1ccc(C)cc1Br` belongs -20.9%; to `Cc1ccc(NS(=O)(=O)c2c(C)[nH]c(=O)[nH]c2=O)cc1F`, -37.9%.
As to `NNC(=O)C12CC3CC(C1)CC(n1ncnn1)(C3)C2`, the “hERG current change (%, negative = inhibition) at 10uM” value is 14.2%.
Next, `O=C(O)CCCC(=O)Nc1ccc(S(=O)(=O)Nc2nccs2)cc1`: 3.77%; `Cc1[nH]c2ccccc2c1C(=O)COC(=O)c1cccc(S(=O)(=O)N2CCCCC2)c1`: 6.18%; `COC(=O)c1ccccc1S(=O)c1snnc1C` (centres unmarked): 19.5%.
Next, `CNC(=O)C1CCN(C(=O)c2ccc(-c3ccccc3)cc2)CC1`: 1.38%.
To `O=[N+]([O-])c1cc2c(cc1/C=N/Nc1nc(N3CCCC3)nc(N3CCCC3)n1)OCO2` belongs -0.497%.
On to `COc1cnc(-c2ccccn2)nc1Oc1c(C)cccc1C`, for which the “hERG current change (%, negative = inhibition) at 10uM” value was found to be 6.27%.
To `COc1ccc(/C(N)=N/OC(=O)CSc2ccc(C)cc2)cc1` belongs 7.13%.
Turning to `CCOc1ccc(C(=O)Nc2nc(C)c(C(=O)OC)s2)cc1`, the “hERG current change (%, negative = inhibition) at 10uM” value stood at 16.4%.
Next, `COCCNC(=O)C(c1ccc(C)o1)N(CCOC)C(=O)Cn1nnc2ccccc21` (centres unmarked): 9.53%; `CCCCCC(=O)NNC1CC(=O)N(c2ccccc2)C1=O` (centres unmarked): -6.15%.
With `Cc1ccc(-c2nn3c(=O)c(C)nnc3s2)cc1`, the “hERG current change (%, negative = inhibition) at 10uM” value came out at 7.17%.
On to `COc1ccc(CNC(=O)[C@H](C)N2C(=O)N3CCc4c([nH]c5ccccc45)[C@@]3(C)C2=O)cc1OC`, for which the “hERG current change (%, negative = inhibition) at 10uM” value is listed as -15.7%.
Next, `Cc1sc2ncnc(SCC(=O)NC(=O)c3cccn3C)c2c1C`: 10.8%.
Next, `Cc1c(Cl)cccc1NC(=S)N1CCN(C(=O)C2CCCO2)CC1` (centres unmarked): 25.8%; `Cc1cccc(-n2c(-c3ccco3)nc3ccccc3c2=O)n1`: 14.2%.
To `COc1cccc(NC(=O)CSc2nn3c(=O)c(C)nnc3s2)c1` belongs 13.9%; to `Cc1cc(C)c(NC(=O)C2c3ccccc3Oc3ccccc32)c(C)c1`, 5.72%.
As for `O=C(Nc1nc2ccccc2n1CCN1CCCC1)C1CCCCC1`, the “hERG current change (%, negative = inhibition) at 10uM” value was -58.6%.
In the case of `COC(=O)c1cccc(NC(=O)CCNC(=O)c2ccco2)c1`, the “hERG current change (%, negative = inhibition) at 10uM” value is 18.8%.
Next, `Cc1cc(C)cc(NC(=O)CSc2ccccc2)c1`: 3.83%; `Cc1cccc(-n2c(SCc3cc(=O)n4c(C)cccc4n3)nc3[nH]ncc3c2=O)c1`: -26.8%.
To `CCOC(=O)c1oc2ccccc2c1CSc1nnc(-c2ccco2)o1` belongs 9.92%; to `COc1ccccc1NC(=S)NCc1cccnc1`, 9.93%.
Consider `C#CCN(Cc1ccco1)C(=O)c1cc(COc2ccc(F)cc2Cl)on1`, for which the “hERG current change (%, negative = inhibition) at 10uM” value is -7.47%.
Next, `O=c1[nH]c(=O)n(-c2cccc3ccccc23)c(O)c1/C=N/N1CCCCC1`: 11.6%.
Next, `COc1cccc([C@@H]2Oc3ccc(OC)cc3C(=O)[C@H]2OC(=O)NCc2ccc3c(c2)OCO3)c1`: -7.43%; `COc1ccc(-c2ccc(-c3noc(C4CCCCC4)n3)c(OC)n2)cc1`: 8.87%.
To `Cc1cccc(OCCC(=O)Nc2cc(S(=O)(=O)N3CCCCC3)ccc2N2CCOCC2)c1` belongs 6.71%.
As for `O=C(Nc1ccccc1)N1CCN(c2ccc(F)cc2)CC1`, the “hERG current change (%, negative = inhibition) at 10uM” value is -7.74%.
`CCn1cc(-c2cc(C(=O)O)on2)c(C)n1`: the “hERG current change (%, negative = inhibition) at 10uM” value is recorded as 17.7%.
To `COc1cc(NC(=O)c2onc(C)c2Cl)c(OC)cc1Cl` belongs 9.96%.
Turning to `O=[N+]([O-])c1ccc2c(c1Nc1ccccc1Cl)=NC1(CCCCC1)N=2`, the “hERG current change (%, negative = inhibition) at 10uM” value is on record as 3.29%.
To `CCc1cc2c(=O)c(-c3ccc4c(c3)OCCO4)coc2c(CN2CCCCC2C)c1O` (centres unmarked) belongs 16%; to `CCCOc1ccc(CC(CC(=O)O)(C(=O)O)C(=O)O)cc1`, 13.5%.
To `CC1CCN(c2ccc(S(=O)(=O)N3CCC(C)CC3)cc2N)CC1` belongs 6.3%.
Next, `COc1ccc(CNC(=O)COC(=O)CO/N=C(\C)c2ccc3c(c2)OCO3)cc1`: -19.2%; `CCCS(=O)(=O)N1CCCC(C(=O)NCCCN(Cc2ccccc2)C(C)C)C1` (centres unmarked): -7.98%; `Cc1cccc(C)c1NC(=O)C1CCN(C(=O)c2cccs2)CC1`: 13.9%.
With `COC(=O)c1cc(C(=O)N2CCN(C(=O)c3ccco3)CC2)cc([N+](=O)[O-])c1`, the “hERG current change (%, negative = inhibition) at 10uM” value is given as -66.7%.
Next, `CC(C)NC(=O)N1CCC(c2nc3ccccc3s2)CC1`: -3.32%; `CCOc1ccc(S(=O)(=O)N2CCCC(C(=O)Nc3cc(C)cc(C)c3)C2)cc1` (centres unmarked): 14.6%.
Consider `O=C(C1CCN(c2nnc(-n3cccc3)s2)CC1)N1CCN(Cc2ccc3c(c2)OCO3)CC1`, for which the “hERG current change (%, negative = inhibition) at 10uM” value is -68.2%.
Consider `O=C(N/N=C/c1cc(Cl)cc([N+](=O)[O-])c1O)C(O)(c1ccccc1)c1ccccc1`, for which the “hERG current change (%, negative = inhibition) at 10uM” value is -53%.
To `Cc1cc(NC(=O)Nc2ccc(Cl)cc2)n(C(C)(C)C)n1` belongs 17.7%.
Next, `COc1ccc(CCN(C)CC(O)c2ccccc2)cc1OC.O=C(O)C(=O)O` (centres unmarked): -32.2%; `CCOC(=O)[C@H]1[C@H]2COc3ccc(Br)cc3[C@@H]2N2C(=O)c3cc(OC)c(OC)cc3NC(=O)[C@@]12C`: -4.84%; `CCOC(=O)Cn1c(=O)oc2cc(S(=O)(=O)N3CCC(N4CCCCC4)CC3)ccc21`: 5.74%.
To `CCOP(=O)(OCC)C(NCc1ccccc1)c1ccc(Br)cc1` (centres unmarked) belongs -4.68%; to `Cc1cccc(C(C)C)c1-n1nnnc1-c1ccccc1`, -6.28%; to `COc1ccccc1N1CCN(C2CCCC(C)C2)CC1` (centres unmarked), -4.44%.
As to `Cl.O=C(O)CCn1c(CO)nc2ccccc21`, the “hERG current change (%, negative = inhibition) at 10uM” value is 22.1%.
Next, `Cc1nnc(-c2cnn(C)c2N)n1CCCN(C)C`: 16.3%; `CC1=NN(c2nc(-c3ccc(C)cc3)cs2)C(=O)C1N=Nc1ccc2ccccc2c1` (centres unmarked): -8.04%.
To `CC(C)(O)C#Cc1ccc(CN2CCN(C3CCCC3)C(CCO)C2)cc1` (centres unmarked) belongs 6.32%; to `CC(=O)N1CCN(Cc2nc3cc([N+](=O)[O-])ccc3n2C)CC1`, -4.94%.
`C=CCNc1nc(C(=O)OCC(=O)c2ccc(C)c([N+](=O)[O-])c2)cs1`: the “hERG current change (%, negative = inhibition) at 10uM” value was determined as 12.8%.
On to `Cc1ccc2nc(NC(=O)c3cc(-c4ccco4)nc4ccccc34)sc2c1`, for which the “hERG current change (%, negative = inhibition) at 10uM” value is reported as 10.1%.
For `Nc1nc(-c2cccs2)cs1`, the “hERG current change (%, negative = inhibition) at 10uM” value was -0.0742%.
To `O=C1CN(C(=O)COC(=O)COc2ccc3c(c2)CCC3)c2ccccc2N1` belongs 6.66%; to `COC(=O)[C@H]1[C@H]2C[C@H]3c4[nH]c5ccccc5c4CCN3C[C@@H]2CC[C@@H]1O`, -12.5%.
On to `O=C(c1cccs1)c1c[nH]cc1-c1ccccc1`, for which the “hERG current change (%, negative = inhibition) at 10uM” value is listed as 11.3%.
Next, `CC(=O)Nc1ccc(NC(=O)CCOc2cc(C)ccc2C)cc1`: 16.2%.
Next, `CCn1ccnc1CN1CCc2c([nH]c3ccccc23)C1C(C)(C)C` (centres unmarked): -59.7%.
